The source of these data is patent US12426598B2, “Method for controlling herbicide-resistant weed” (SUMITOMO CHEMICAL COMPANY, LIMITED, priority 2019, dated 2025).

Like-named read-outs stand apart in the source and are kept apart here.

Experiment [1] concerns PPO inhibitor-resistant weeds. Kind of experiment: Pot tests with crops in greenhouse (Examples 73 to 2304). To be noted: Examples 145 to 288: as Examples 1 to 144, RoundupPowerMax added at 32 fluid ounce/acre (1,543 g/ha as glyphosate-potassium salt). The protocol:
(§1) In a plastic pot, palmer amaranth (Amaranthus palmeri) having an Arg128Met mutation in PPO2 is seeded. On the same day, compound X is applied to the surface of soil so that the application rate of the compound X is 10, 20, 40, or 80 g/ha and the spray liquid amount is 200 L/ha. The plastic pot is then placed in a greenhouse, and at 7 days after the application, soybeans are seeded, and further at 14 days after seeding the soybeans, the effect on the weeds and crop injuries on the soybeans are investigated.
(§2) In a plastic pot, palmer amaranth (Amaranthus palmeri) having an Arg128Met mutation in PPO2 and soybeans are seeded. On the same day, compound X is applied to the surface of soil so that the application rate of the compound X is 10, 20, 40, or 80 g/ha and the spray liquid amount is 200 L/ha. The soybeans are then cultivated in a greenhouse, and at 21 days after seeding, the effect on the weeds and crop injuries on the soybeans are investigated.
In a plastic pot, palmer amaranth (Amaranthus palmeri) having an Arg128Met mutation in PPO2 and soybeans are seeded. The soybeans are then cultivated in a greenhouse, and at 21 days after seeding, compound X is applied to the stem and leaf so that the application rate of the compound X is 10, 20, 40, or 80 g/ha and the spray liquid amount is 200 L/ha. […]

Experiment [2] deals with palmer amaranth containing an Arg128Met mutation in PPO2. Briefly: Foliar spray pot test in greenhouse, herbicidal effect. Particulars: 200 L/ha, rating 0 to 100.
Experiment [3] deals with palmer amaranth having an Arg128Met mutation in PPO2. Here is the method:
as §1, §2
In a plastic pot, palmer amaranth (Amaranthus palmeri) having an Arg128Met mutation in PPO2 and soybeans are seeded. The soybeans are then cultivated in a greenhouse, and at 21 days after seeding, compound X is applied to the stem and leaf so that the application rate of the compound X is 10, 20, 40, or 80 g/ha and the spray liquid amount is 200 L/ha. Further, the soybeans are cultivated in the greenhouse, and at 14 days after the application of compound X, the effect on the weeds and crop injuries on the soybeans are investigated.

For the compound `CCOC(=O)COc1ncccc1Oc1nc(-n2c(=O)cc(C(F)(F)F)n(C)c2=O)c(F)cc1Cl` [compound Y], the “effect on the weeds” value in experiment [1] is “effective control effect”.

For the compound `CCOC(=O)COc1ccccc1Oc1nc(-n2c(=O)cc(C(F)(F)F)n(C)c2=O)c(F)cc1Cl` [compound X], the Herbicidal effect in experiment [2] (Example 2305: plant height 10 cm, sprayed 5 g/ha, 14 days after) stood at 100; in experiment [2] (Example 2306: plant height 30 cm, sprayed 20 g/ha, 7 days after), 95. Further, the “effect on the weeds” value in experiment [3] (Example 1: soil surface application on day of weed seeding, 10, 20, 40 or 80 g/ha, soybeans seeded 7 days after, assessed 14 days after seeding soybeans) is listed as “effective control effect”; in experiment [3] (Example 2: soil surface application on day of seeding weed and soybeans, 10, 20, 40 or 80 g/ha, assessed 21 days after seeding) it was “effective control effect”; in experiment [3] (Example 3: stem and leaf application 21 days after seeding, 10, 20, 40 or 80 g/ha, assessed 14 days after application), “effective control effect”; in experiment [1], “effective control effect”.
